Assay results from PMC4336329 (PLoS ONE, 2015).
Hit rate of the full screen: of about 310,000 compounds, about 14,000 (4.5%) showed an effect of 50% or more. Effects have a minus sign here. Some of the results follow.

target: human ether-à-go-go-related gene (hERG) potassium channel (human, UniProt Q12809); assay: primary screen, population patch clamp on CHO cells stably expressing hERG
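Also: peak tail current of the secondary pulse compared with the same well before compound.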

human ether-à-go-go-related gene (hERG) potassium channel, sequence (Q12809 whole entry, looked up): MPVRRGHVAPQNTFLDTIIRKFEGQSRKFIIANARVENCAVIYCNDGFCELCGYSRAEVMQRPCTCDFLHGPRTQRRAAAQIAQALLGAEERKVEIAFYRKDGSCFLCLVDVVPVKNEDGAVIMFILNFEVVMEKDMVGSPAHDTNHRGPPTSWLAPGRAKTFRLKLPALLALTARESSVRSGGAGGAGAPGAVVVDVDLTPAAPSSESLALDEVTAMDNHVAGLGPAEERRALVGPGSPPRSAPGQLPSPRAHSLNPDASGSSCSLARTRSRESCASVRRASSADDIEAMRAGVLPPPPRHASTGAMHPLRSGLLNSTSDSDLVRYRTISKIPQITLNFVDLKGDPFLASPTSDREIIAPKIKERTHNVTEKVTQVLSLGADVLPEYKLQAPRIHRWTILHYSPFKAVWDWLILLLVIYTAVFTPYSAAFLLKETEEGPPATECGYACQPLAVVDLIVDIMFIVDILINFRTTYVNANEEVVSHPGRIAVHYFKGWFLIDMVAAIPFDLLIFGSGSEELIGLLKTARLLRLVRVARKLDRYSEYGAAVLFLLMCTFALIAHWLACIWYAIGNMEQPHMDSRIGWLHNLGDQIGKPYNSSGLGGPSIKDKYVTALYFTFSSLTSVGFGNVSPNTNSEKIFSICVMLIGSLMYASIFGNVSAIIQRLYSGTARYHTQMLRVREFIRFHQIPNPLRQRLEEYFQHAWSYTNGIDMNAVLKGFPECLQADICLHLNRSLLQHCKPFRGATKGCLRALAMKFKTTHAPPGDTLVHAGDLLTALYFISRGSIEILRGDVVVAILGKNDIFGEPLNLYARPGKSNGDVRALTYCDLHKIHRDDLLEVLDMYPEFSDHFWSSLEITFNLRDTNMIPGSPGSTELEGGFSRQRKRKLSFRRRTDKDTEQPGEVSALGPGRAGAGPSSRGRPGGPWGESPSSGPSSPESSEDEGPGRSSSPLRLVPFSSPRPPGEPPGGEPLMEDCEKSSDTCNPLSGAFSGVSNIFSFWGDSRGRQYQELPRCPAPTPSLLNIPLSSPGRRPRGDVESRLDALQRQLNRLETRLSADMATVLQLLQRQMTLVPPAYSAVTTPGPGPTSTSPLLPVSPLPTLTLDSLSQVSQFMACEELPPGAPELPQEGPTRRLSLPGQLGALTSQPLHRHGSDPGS

First: CC(C)(C)c1ccc(NC(=O)COC(=O)c2ccc(CN3CCCC3=O)cc2)cc1
Second: COC(=O)c1ccc(CN2CCCC(CNC(=O)Cc3ccc(OC)cc3)C2)cc1 (centres unmarked)
The “hERG current change (%, negative = inhibition) at 10uM” value of the first is lower: -30.1% for the first, -14.7% for the second.

Compared with `Cc1ccc(NC(=O)C(=O)c2ccc(C)cc2)cc1`, `CC1CCCCN1C(=O)c1ccc(C(=O)Nc2ccc(F)cc2)cc1` (centres unmarked) is lower in “hERG current change (%, negative = inhibition) at 10uM” value: 14.6% for the first, -13.9% for the second.

Going from `COC(=O)COc1cccc2c(=O)n(CC(=O)N3CCCCC3)ccc12` to `COc1ccc(S(=O)(=O)N2CCCC2)c2ccccc12`, the “hERG current change (%, negative = inhibition) at 10uM” value rises from 0.72% to 24.9%.

First: CCOC(=O)C(C)On1c(SC(C)C(=O)OCC)nc2ccccc2c1=O (centres unmarked)
Second: Cc1cc(NC(=O)COC(=O)c2c(C)nn(Cc3ccccc3)c2Cl)no1
The “hERG current change (%, negative = inhibition) at 10uM” value of the first is lower: -53.5% for the first, 1.89% for the second.

First: Cc1cccc(C)c1NC(=O)N1CCC(C(=O)c2ccc(F)cc2)CC1
Second: O=C(CC(C(=O)O)c1c(F)cccc1Cl)c1ccc(Cl)cc1 (centres unmarked)
The “hERG current change (%, negative = inhibition) at 10uM” value of the first is lower: -22.6% for the first, 17.9% for the second.

First: O=c1cc(N2CCc3ccccc32)[nH]c(=O)n1-c1ccccc1Cl
Second: Cc1onc(-c2ccccc2)c1C(=O)N1CCN(c2ccccc2F)CC1
The “hERG current change (%, negative = inhibition) at 10uM” value of the first is higher: 21.8% for the first, 1.53% for the second.

Going from `COC(=O)C1=C(CN2CCSCC2)NC(=O)NC1c1cc(C)ccc1C` (centres unmarked) to `Cc1ccc2c(c1)N(CCC(=O)NCCN1CCOCC1)C(=O)CO2`, the “hERG current change (%, negative = inhibition) at 10uM” value falls from 0.726% to -2.16%.

Going from `CCn1cc(C(=O)N2CC=C(c3ccccc3)CC2)c(=O)c2ccc(C)nc21` to `O=C(Nc1ccc(Cl)c(C(=O)N2CCOCC2)c1)c1ccccc1`, the “hERG current change (%, negative = inhibition) at 10uM” value rises from -14.6% to -7.98%.

Compared with `CCN(CC(=O)NCc1ccc(F)cc1)C(=O)/C=C/c1ccc(OC)cc1`, `COc1ccc(CC(=O)Nc2cc(C)on2)cc1` is higher in “hERG current change (%, negative = inhibition) at 10uM” value: -48% for the first, 5.74% for the second.

Going from `COc1ccc(Cc2nc(-c3ccc(-n4cccc4)cc3)no2)cc1` to `COc1ccc(-c2nc3ccccc3nc2-c2ccccc2)cc1`, the “hERG current change (%, negative = inhibition) at 10uM” value rises from 8.02% to 19.7%.

Going from `O=C(Cc1cccs1)NNC(=S)NC(=O)c1ccco1` to `Cc1ccccc1C(=O)OC(C)C(=O)NCc1ccc2c(c1)OCO2` (centres unmarked), the “hERG current change (%, negative = inhibition) at 10uM” value falls from 15.6% to -22.4%.

Compared with `CN1CCC(=NNC(=O)CN(c2cccc(Br)c2)S(C)(=O)=O)CC1`, `O=C(c1cc(Br)ccc1Cl)N1CCCC1` is higher in “hERG current change (%, negative = inhibition) at 10uM” value: 1.73% for the first, 24.9% for the second.

First: OCc1c[nH]c(=S)n1CCOc1cccc(C(F)(F)F)c1
Second: Cn1cc(C(CO)Cc2ccccc2)c2ccccc21 (centres unmarked)
The “hERG current change (%, negative = inhibition) at 10uM” value of the first is higher: 17.3% for the first, 11.4% for the second.

Compared with `CCN(CC)CCNC(=O)c1ccc(NC(=O)C2CCN(c3ncnc4sc(C)c(C)c34)CC2)cc1`, `CCN(CC)C(=O)C1CCCN(c2ccc([N+](=O)[O-])cc2/C=N/NC(=O)c2ccc([N+](=O)[O-])cc2)C1` (centres unmarked) is lower in “hERG current change (%, negative = inhibition) at 10uM” value: -29.8% for the first, -45% for the second.

Compared with `CC(NCc1ccccc1Cl)C(O)c1ccccc1.Cl` (centres unmarked), `COc1ccccc1CNC(=O)C(NC(=O)c1ccccc1)C(C)C` (centres unmarked) is higher in “hERG current change (%, negative = inhibition) at 10uM” value: 4.31% for the first, 6.98% for the second.

Going from `CCOC(=O)COc1coc(CN2CCN(c3cccc(Cl)c3)CC2)cc1=O` to `CCN1CCN(C(=O)c2ccc3c(c2)N(Cc2ccccc2F)C(=O)c2ccccc2S3(=O)=O)CC1`, the “hERG current change (%, negative = inhibition) at 10uM” value rises from -34.1% to 0.702%.

Going from `Cc1ccc(-c2cc(=O)c3ccc(F)cc3[nH]2)cc1` to `Cc1ccc(CNc2ccc(N3C(=O)CC(C)C3=O)cc2[N+](=O)[O-])cc1` (centres unmarked), the “hERG current change (%, negative = inhibition) at 10uM” value falls from 7.84% to -4.21%.

Going from `CC(C)Cn1c(CN2CCN(C)C(CCO)C2)nc2ccccc21` (centres unmarked) to `Cc1nc2ccccc2n(CC(=O)Nc2cc(Cl)cc(Cl)c2)c1=O`, the “hERG current change (%, negative = inhibition) at 10uM” value rises from 4.02% to 25%.

Compared with `Br.CCC1CC(CSC(=N)N)OC1=O` (centres unmarked), `OCC[C@H]1C[C@H](O)[C@@H](O)[C@@]2(CCc3ccccc3CO2)O1` is higher in “hERG current change (%, negative = inhibition) at 10uM” value: -1.22% for the first, 7.83% for the second.

Compared with `O=C1C2C3C=CC(C2C(=O)N1CCO)C1C(=O)N(CCO)C(=O)C31` (centres unmarked), `COc1ccc(F)cc1S(=O)(=O)NCC(=O)NCc1cc(=O)n(C)c(=O)n1C` is higher in “hERG current change (%, negative = inhibition) at 10uM” value: 9.31% for the first, 22.7% for the second.

Going from `CSc1ccccc1OCc1cc(C(=O)NCc2cnc(C)cn2)no1` to `COc1ccccc1/C=C/C=N/NC(=O)c1cc(-c2ccco2)[nH]n1`, the “hERG current change (%, negative = inhibition) at 10uM” value falls from 2.92% to -0.436%.

Going from `Cc1ccc(S(=O)(=O)N(C)C)cc1NC(=O)c1ccc2ccccc2n1` to `CCc1nnc(NS(=O)(=O)c2ccc(NC(=O)c3ccccc3OC)cc2)s1`, the “hERG current change (%, negative = inhibition) at 10uM” value falls from 25.7% to 18.5%.

First: CCCn1c(SCC(=O)Nc2nnc(-c3ccccc3)s2)nnc1-c1ccccn1
Second: CCn1c(SCC(=O)NCCc2ccccc2)nc2c([nH]c3ccccc32)c1=O
The “hERG current change (%, negative = inhibition) at 10uM” value of the first is lower: 5.96% for the first, 17% for the second.

Going from `COc1cc(/C=N/N2C(C)CCCC2C)cc(Br)c1O` (centres unmarked) to `COc1cc(C(=O)OC(C)CN2CCCC2)cc(OC)c1OC.Cl` (centres unmarked), the “hERG current change (%, negative = inhibition) at 10uM” value falls from 5.71% to -12.2%.

First: CCCN(CCC)C1=N/C(=C\c2ccco2)C(=O)N1c1ccccc1
Second: CCCCC(CCC(=O)Nc1ccn(-c2ccccc2)n1)C(=O)O (centres unmarked)
The “hERG current change (%, negative = inhibition) at 10uM” value of the first is lower: -2.4% for the first, 6.04% for the second.

Going from `COCc1cc(C)nc(SCC(=O)Nc2cc3c(cc2C#N)OCO3)c1C#N` to `C/C(CC(=O)Nc1ccc2c(c1)OCO2)=N\NC(=O)OC(C)(C)C`, the “hERG current change (%, negative = inhibition) at 10uM” value falls from 9.53% to -5.1%.

Compared with `Cc1ccc(N2C(=O)Nc3ccccc3C2(O)C(=O)NCCCOC(C)C)cc1C` (centres unmarked), `COc1ccc(NC(=O)Cn2nnc(-c3ccccc3F)n2)cc1Cl` is lower in “hERG current change (%, negative = inhibition) at 10uM” value: 19.7% for the first, 5.56% for the second.

Going from `Cc1cccc(-n2c(C)c(C)c3c(N)ncnc32)c1` to `Cc1nc2c(ccc3c([N+](=O)[O-])cccc32)c(C)c1C`, the “hERG current change (%, negative = inhibition) at 10uM” value rises from 8.13% to 28%.

First: COc1ccc(C(=O)N2CCC3(CC2)NCCc2[nH]cnc23)cc1
Second: COc1cccc(-c2cc(C(=O)NCC3CCCO3)on2)c1 (centres unmarked)
The “hERG current change (%, negative = inhibition) at 10uM” value of the first is lower: -18.8% for the first, 11% for the second.

First: COc1cccc(C(=O)NC2CCSC2=O)c1 (centres unmarked)
Second: COCC(=O)Nc1cc(Cl)ccc1C
The “hERG current change (%, negative = inhibition) at 10uM” value of the first is higher: 23.8% for the first, 20.1% for the second.

First: O=C(NNC1=NS(=O)(=O)c2ccccc21)c1ccc(Cl)cc1
Second: O=C(NNC1=Nc2ccccc2SC1)c1ccc(Cl)cc1
The “hERG current change (%, negative = inhibition) at 10uM” value of the first is higher: 23.5% for the first, 3.3% for the second.

First: O=C(COC(=O)C1CCN(S(=O)(=O)c2ccc3c(c2)OCCO3)CC1)NC1CCS(=O)(=O)C1 (centres unmarked)
Second: O=[N+]([O-])c1ccc(S(=O)(=O)Nc2ccc3c(c2)OCCO3)cc1
The “hERG current change (%, negative = inhibition) at 10uM” value of the first is lower: -9.56% for the first, 3.95% for the second.

Going from `CN1CCN(c2ccccc2NS(=O)(=O)c2ccc3c(c2)CCN3C(=O)C2CCC2)CC1` to `O=C(NCc1ccco1)c1ccc(N2CCOCC2)c([N+](=O)[O-])c1`, the “hERG current change (%, negative = inhibition) at 10uM” value rises from -23.3% to -1.79%.

First: C=C1CCN([C@@H](Cc2ccccc2)C(=O)Nc2ccc(OC)cc2)S(=O)(=O)c2ccccc21
Second: Cc1nc2ccccc2c(=O)n1-c1ccc(NS(=O)(=O)c2ccccc2)cc1
The “hERG current change (%, negative = inhibition) at 10uM” value of the first is higher: -3.32% for the first, -26.5% for the second.

Going from `CC(=O)c1cccc(NC(=O)C2C3C=CC(C3=C(c3ccccc3)c3ccccc3)C2C(=O)O)c1` (centres unmarked) to `COc1ccc(/C=N/NC(=O)CNc2ccc(Br)cc2)c(C(=O)O)c1OC`, the “hERG current change (%, negative = inhibition) at 10uM” value rises from -23.1% to 13.9%.

Going from `O=c1[nH]c(=S)[nH]c(O)c1N=Nc1cc2c(cc1[N+](=O)[O-])OCO2` to `COc1ccc(-c2nc(NC(=O)C3CC(=O)N(c4ccc5c(c4)OCCO5)C3)sc2C)cc1` (centres unmarked), the “hERG current change (%, negative = inhibition) at 10uM” value rises from -4.2% to 32.7%.

Going from `Cc1ccc(-c2nnn(CC(=O)N(CCO)C(C(=O)NC(C)(C)C)c3ccncc3)n2)cc1` (centres unmarked) to `CCN(CC(=O)Nc1c(F)cccc1F)C(=O)c1nc2nccc(C)n2n1`, the “hERG current change (%, negative = inhibition) at 10uM” value falls from 9.05% to 0.506%.

Going from `CN(C)C(=O)Oc1ccc(OCc2n(C)c3ccccc3[n+]2C)cc1.[Cl-]` to `COc1ccc(N=C2SCC(=O)N2c2ccc(OC)cc2)cc1`, the “hERG current change (%, negative = inhibition) at 10uM” value falls from 5.79% to -14.4%.

Going from `Fc1ccc(/C=N/n2cnn(Cc3ccccc3Cl)c2=S)cc1` to `Fc1ccc(Cn2nnc3ccccc32)cc1`, the “hERG current change (%, negative = inhibition) at 10uM” value falls from 9.5% to 4.22%.

Going from `Cc1oc2c(C)c3oc(=O)c(CCC(=O)N4C[C@H]5C[C@@H](C4)c4cccc(=O)n4C5)c(C)c3cc2c1C` to `CCCn1c(-c2ccc(OC)cc2)nc2c(=O)n(C)c(=O)[nH]c21`, the “hERG current change (%, negative = inhibition) at 10uM” value rises from -51.7% to 22.6%.

First: COCCNC(=S)N1CCc2cc(OC)c(OC)cc2C1COc1ccc(F)cc1 (centres unmarked)
Second: COc1cccc(CNc2nc3nc(C)cc(C)n3n2)c1
The “hERG current change (%, negative = inhibition) at 10uM” value of the first is lower: -21.4% for the first, -15.6% for the second.

Compared with `CNc1nc(SC)nc2ccsc12`, `CN(C)CCCNc1nc(N)c([N+](=O)[O-])c(NCCO)n1` is higher in “hERG current change (%, negative = inhibition) at 10uM” value: 3.42% for the first, 19.1% for the second.

First: CCN(CC)CCCNC(=O)Cn1cnc2ccc(S(=O)(=O)N3CCC(C)CC3)cc2c1=O
Second: COC(CN(C)C(=O)C1CCC(CNS(=O)(=O)c2ccccc2)CC1)OC (centres unmarked)
The “hERG current change (%, negative = inhibition) at 10uM” value of the first is lower: -0.31% for the first, 9.87% for the second.

Compared with `O=C(CSc1n[nH]c(=O)[nH]c1=O)N/N=C/C=C\c1ccccc1`, `CC1=NNC(=O)C1CCC(=O)N/N=C/C=C/c1ccccc1` (centres unmarked) is lower in “hERG current change (%, negative = inhibition) at 10uM” value: 23.6% for the first, 1.22% for the second.

`Oc1ccc(/C=N/NC(=S)NCCN2CCOCC2)c(O)c1` was tested, and the “hERG current change (%, negative = inhibition) at 10uM” value was 10.8%.
